The list shows a part of the results. The list includes weakly bound sequences.

This assay addresses T1, MBP-FoxP3dN (UniProt Q99JB6).
T1 sequence: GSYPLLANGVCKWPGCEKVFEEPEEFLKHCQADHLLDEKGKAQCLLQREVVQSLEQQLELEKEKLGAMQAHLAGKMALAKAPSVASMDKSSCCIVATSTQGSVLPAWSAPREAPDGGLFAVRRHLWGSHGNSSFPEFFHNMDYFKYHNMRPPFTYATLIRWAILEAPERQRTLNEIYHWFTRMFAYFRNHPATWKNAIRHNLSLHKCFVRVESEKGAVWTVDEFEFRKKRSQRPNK
As to the kind of experiment: PD-seq (MBP pull-down with sequencing). The conditions noted are these: 20 mM Tris-HCl pH 7.5, 100 mM NaCl, 1.5 mM MgCl2, 0.4 uM protein, 0.1 uM dsDNA library, 30 min, room temperature, amylose pull-down; high values mean tight binding; double strand, one strand shown.
On to “GATGATTGTTCTCCCAGCTGATGAATTATTGGCATCGAGTAAACAAATTTTCCTAATCTTTCTGTTCAAGCGCCATCTAC”, for which the binding signal (RPM ratio (pull-down/input)) worked out at 1.27.
Turning to “GATGATTGTTCTCCCAGCTGATGAATTATAGGATTCGAGTAAACAAATTTTCCTAATCTTTCTGTTCAAGCGCCATCTAC”, the binding signal (RPM ratio (pull-down/input)) stood at 0.361.
For the sequence “GATGATTGTTCTCCCAGCTGATGAATTGCAAATATCGAGTAAACAAATTTTCCTAATCTTTCTGTTCAAGCGCCATCTAC”, the binding signal (RPM ratio (pull-down/input)) was 1.17.
The figure for “GATGATTGTTCTCCCAGCTGATGAATTGGATAGCTCGAGTAAACAAATTTTCCTAATCTTTCTGTTCAAGCGCCATCTAC” is 0.419; for “GATGATTGTTCTCCCAGCTGATGAATTCGAGCCTTCGAGTAAACAAATTTTCCTAATCTTTCTGTTCAAGCGCCATCTAC” it is 1.57.
Turning to “GATGATTGTTCTCCCAGCTGATGAATTCGCTCGGTCGAGTAAACAAATTTTCCTAATCTTTCTGTTCAAGCGCCATCTAC”, the binding signal (RPM ratio (pull-down/input)) was 0.208.
With “GATGATTGTTCTCCCAGCTGATGAATTGAGTTATTCGAGTAAACAAATTTTCCTAATCTTTCTGTTCAAGCGCCATCTAC”, the binding signal (RPM ratio (pull-down/input)) came out at 2.48.
In the case of “GATGATTGTTCTCCCAGCTGATGAATTTAGAACCTCGAGTAAACAAATTTTCCTAATCTTTCTGTTCAAGCGCCATCTAC”, the binding signal (RPM ratio (pull-down/input)) worked out at 0.436.
As for “GATGATTGTTCTCCCAGCTGATGAATTAATACCCTCGAGTAAACAAATTTTCCTAATCTTTCTGTTCAAGCGCCATCTAC”, the binding signal (RPM ratio (pull-down/input)) was 0.406.
On to “GATGATTGTTCTCCCAGCTGATGAATTTGTGCACTCGAGTAAACAAATTTTCCTAATCTTTCTGTTCAAGCGCCATCTAC”, for which the binding signal (RPM ratio (pull-down/input)) came to 2.89.
As for “GATGATTGTTCTCCCAGCTGATGAATTCGGTTACTCGAGTAAACAAATTTTCCTAATCTTTCTGTTCAAGCGCCATCTAC”, the figure is 1.67; as for “GATGATTGTTCTCCCAGCTGATGAATTATCGCTCTCGAGTAAACAAATTTTCCTAATCTTTCTGTTCAAGCGCCATCTAC”, 0.468.
For “GATGATTGTTCTCCCAGCTGATGAATTCCGTGTTTCGAGTAAACAAATTTTCCTAATCTTTCTGTTCAAGCGCCATCTAC”, the binding signal (RPM ratio (pull-down/input)) amounted to 1.28.
As for “GATGATTGTTCTCCCAGCTGATGAATTTCAGACCTCGAGTAAACAAATTTTCCTAATCTTTCTGTTCAAGCGCCATCTAC”, the figure is 0.225; as for “GATGATTGTTCTCCCAGCTGATGAATTTGAACACTCGAGTAAACAAATTTTCCTAATCTTTCTGTTCAAGCGCCATCTAC”, 0.453.
Regarding “GATGATTGTTCTCCCAGCTGATGAATTAGTCCCGTCGAGTAAACAAATTTTCCTAATCTTTCTGTTCAAGCGCCATCTAC”, the binding signal (RPM ratio (pull-down/input)) worked out at 0.495.
Consider “GATGATTGTTCTCCCAGCTGATGAATTAGGTCTCTCGAGTAAACAAATTTTCCTAATCTTTCTGTTCAAGCGCCATCTAC”, for which the binding signal (RPM ratio (pull-down/input)) was found to be 0.546.
The figure for “GATGATTGTTCTCCCAGCTGATGAATTATGCCCGTCGAGTAAACAAATTTTCCTAATCTTTCTGTTCAAGCGCCATCTAC” is 2.85.

Source of the values: article PMC12820563.
